# Assay results published in PubChem BioAssay AID1745845 (National Center for Advancing Translational Sciences (NCATS), 2022).
# Screen size: about 360,000 compounds; about 2,600 (0.72%) were called active. The inconclusive results got no clear call from the source; some entries with a clear call stand among them for comparison. Calls follow the shape of the dose curve; as a rule, active = well fitted inhibition curve with a large enough effect; inconclusive = small, poorly fitted or top-dose-only effect; inactive = no such curve, though single readings can be large or run the other way. A potency beside an inconclusive call is a rough fit, not a confirmed value.
# Test: Primary qHTS for Inhibitors of ATXN expression; also: nearly all actives have a fitted effect of over 55% in size
# Conditions: HEK-293 ATXN2-luciferase reporter, luminescence, 24 h; activity change, negative = inhibition: at 57 µM (top of the series)
# How it was run: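 qHTS (up to 57 uM final) was run with 24 h compound exposure of reporter cells at 37 °C. Each well was multiplexed: SteadyGlo luminescence measured ATXN2-luciferase expression after a fluorogenic Gly-Phe-AFC viability readout (25 uM final).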
# % is scaled to controls: 0 for no effect and ±100 for the full control effect; potency is read from the fitted curve at half-maximal effect; tags tell the direction and shape of the fitted curve.
SMILES,"activity change, negative = inhibition",Potency
O=C(O)CC1Sc2ccccc2NC1=O (configuration not stated),inactive: -0.295%,
COCc1cc(C)nc(Nc2ccc(C)cc2C)c1C#N,,"inconclusive: 28.2 µM [inhibitor, partial curve, poor fit]"
CCc1ccc(NC(=O)CSc2c(C)cnc3c2c(=O)n(C)c(=O)n3C)cc1,inactive: 3.02%,
COC(=O)CSc1ncccc1-c1nc2ccccc2[nH]1,inactive: 13.5%,
O=C(/C=C1\NC2(CCCC2)Cc2ccccc21)C(=O)N/N=C/c1ccccc1O,,"inconclusive: 39.8 µM [inhibitor, single point]"
CC[C@]12c3[nH]c4cc(-c5ccco5)ccc4c3CCN1C(=O)[C@@H](CC(=O)NCCC1=CCCCC1)C[C@@H]2C(=O)N1CCN(C(=O)C2CC2)CC1,,"inconclusive: 35.5 µM [inhibitor, partial curve, poor fit]"
CCOc1ccc(NC(=NCc2ccc3c(c2)OCO3)SC2CC(=O)N(c3ccccc3)C2=O)cc1 (configuration not stated),inactive: -34.9%,
COC(=O)c1cnc(Nc2nc(C(N)Cc3ccc(Cl)cc3)cs2)nc1C(F)(F)F (configuration not stated),,"inconclusive: 28.2 µM [inhibitor, partial curve, poor fit]"
COc1cccc2c1C(=O)c1c(O)c3c(c(O)c1C2=O)C[C@](O)(C(C)=O)C[C@H]3O[C@@H]1C[C@@H](N)[C@@H](O)[C@@H](C)O1,,"inconclusive: 0.251 µM [inhibitor, full curve, poor fit]"
Cn1c(=O)c2c(nc(NC3CCCC3)n2C)n(C)c1=O,inactive: 4.68%,
O=S(=O)(Nc1ccc(N=Nc2ccccc2)cc1)c1ccccc1,,"inconclusive: 39.8 µM [inhibitor, single point]"
COc1ccc(C(OCC(O)CNCCc2ccccc2)c2ccc(OC)cc2)cc1 (configuration not stated),,"inconclusive: 23.8 µM [inhibitor, single point]"
FC(F)(F)c1cnc(NNC(=S)Nc2ccc(Cl)cc2)c(Cl)c1,,"inconclusive: 28.2 µM [inhibitor, single point]"
COc1ccc(C[C@H]2CN3C(=NC[C@H]3Cc3ccccc3)N2CCNC(=O)CCC2CCCCC2)cc1,,active: 35.5 µM
CCc1c(C)nc(SCC(=O)c2cccs2)c(C#N)c1C,inactive: 40.9%,
c1ccc2c(Nc3nc(-c4ccncc4)nc4ccccc34)cccc2c1,inactive: -23%,
CS(=O)(=O)c1ccccc1-c1nnc(NC(=O)c2cccc(N3C(=O)CCC3=O)c2)o1,inactive: -16.5%,
COc1ccccc1-c1cc(NC=O)c2ncc(-c3cccc(C(F)(F)F)c3)n2c1,,"inconclusive: 39.8 µM [inhibitor, single point]"
Cc1ccc(NC(=O)COC(=O)C(NS(=O)(=O)c2ccc(Cl)cc2)C(C)O)c(Br)c1 (configuration not stated),inactive: 13%,
CC(=O)C(=Cc1ccc(Cl)cc1)C(=O)c1ccccc1,,"inconclusive: 31.6 µM [inhibitor, single point]"
NCCc1ccc(O)c(O)c1,,"inconclusive: 31.6 µM [inhibitor, partial curve]"
COc1ccc(NS(=O)(=O)c2cccc(C(=O)N/N=C/c3c(F)c(F)c(F)c(F)c3F)c2)cc1,,"inconclusive: 39.8 µM [inhibitor, single point]"
Cn1nc(-c2ccccc2F)c2cc(C(=O)N3CCN(c4ccc(F)cc4)CC3)sc21,,"inconclusive: 20 µM [inhibitor, single point]"

SMILES,"activity change, negative = inhibition",Potency
O=C(N/N=C\c1ccc(Cl)cc1)C1=NOC2COC3(CCN(c4ccc([N+](=O)[O-])cc4)CC3)OCC12 (configuration not stated),,"inconclusive: 2.82 µM [inhibitor, partial curve, poor fit]"
Cc1nn(C(=O)c2cccc(F)c2)c(C)c1S(=O)(=O)N1CCCCCC1,inactive: 4.25%,
C(=C1c2ccccc2-c2ccccc21)c1ccccn1,inactive: -8.6%,
COC(=O)C1=C(C)N(Cc2ccccc2)C(=NCC(C)C)N[C@H]1c1cccc(F)c1,,"inconclusive: 39.8 µM [inhibitor, single point]"
CC(C)(C)c1ccc(NC(=O)CSc2nnc3scc(-c4ccccc4)n23)cc1,,"inconclusive: 25.1 µM [inhibitor, single point]"
N/C(Cc1ccccc1)=N\OC(=O)c1cccc2ccccc12,inactive: -1.28% [at 11.3 µM],
O=C(NCC1CC1(Cl)Cl)Nc1ccc(Cl)c(Cl)c1 (configuration not stated),,"inconclusive: 39.8 µM [inhibitor, single point]"
Cc1ccc(NC(=S)N=Nc2c(O)[nH]c3ccccc23)cc1,inconclusive: -57.5% [inhibitor],
NC(=S)N/N=C\c1c(OCc2ccccc2Cl)ccc2ccccc12,,"inconclusive: 4.47 µM [inhibitor, partial curve, poor fit]"
CCC(=O)N1CCCc2cc(S(=O)(=O)Nc3ccc(C)c(C)c3)ccc21,,"inconclusive: 11.2 µM [inhibitor, partial curve, poor fit]"
O=S1(=O)CC/C(=N\O)c2ccccc21,inactive: 3.69%,
O=C(CN1CCC(C(=O)c2ccc(Cl)cc2)CC1)NC1CCCC1,,"inconclusive: 10 µM [inhibitor, partial curve, poor fit]"
Cc1cccc(N(CC(=O)NCc2ccc3c(c2)OCO3)C(=O)CCC(=O)Nc2ccccn2)c1C,,"inconclusive: 35.5 µM [inhibitor, partial curve, poor fit]"
COc1ccccc1C(CNC(=O)c1ccc(-c2ccccc2Cl)o1)N1CCCC1 (configuration not stated),,"inconclusive: 14.1 µM [inhibitor, partial curve]"
Cc1cc(Cl)ccc1OC(C)C(=O)N1CCCN(C(=O)C(C)Oc2ccc(Cl)cc2C)CC1 (configuration not stated),,"inconclusive: 28.2 µM [inhibitor, single point]"
OCC1CCCN(C(=S)Nc2ccc(OC(F)F)cc2)C1 (configuration not stated),inactive: 18.6%,
Cn1cnc2c(F)c(Nc3ccc(Br)cc3Cl)c(C(=O)NOCCO)cc21,,"inconclusive: 12.2 µM [inhibitor, full curve]"
Cc1cc(-c2nnc3n2N=C(c2ccc(-c4ccccc4)cc2)CS3)n[nH]1,,"inconclusive: 39.8 µM [inhibitor, single point]"
CCn1c2ccc(F)cc2c2nnc(SCCN3CCCCC3)nc21,,inactive
CCn1cc(CN2CCC(C(=O)Nc3cccc(-c4cccc(Cl)c4)c3)CC2)cn1,,"inconclusive: 31.6 µM [inhibitor, single point]"
Nc1nc(N)c2nc(-c3cccc(O)c3)c(-c3cccc(O)c3)nc2n1,,active: 24.3 µM
Cc1ccc(NC(=O)c2ncn(CCCNCCCc3ccccc3)n2)cc1C,,"inconclusive: 28.2 µM [inhibitor, single point]"
CCc1ccc(NC(=O)C2CCCN(S(=O)(=O)c3ccc4c(c3)CC(C)N4C(C)=O)C2)cc1 (configuration not stated),,"inconclusive: 22.4 µM [inhibitor, single point]"

SMILES,"activity change, negative = inhibition",Potency
Cc1nc(N2N=C3/C(=C/c4ccc(F)cc4)CCCC3C2c2ccc(F)cc2)sc1C(=O)N(C)C (configuration not stated),,"inconclusive: 17.8 µM [inhibitor, partial curve, poor fit]"
Cc1nc(-c2ccc(Cl)cc2)sc1C1(C)CC(c2ccncc2)=NO1 (configuration not stated),inactive: -5.69%,
CN(Cc1cc(Br)cc(Br)c1N)C1CCCCC1,,inactive
CCn1c(=O)cc(SCC(=O)N2CCN(c3cc(C)ccc3C)CC2)c2ccccc21,,"inconclusive: 39.8 µM [inhibitor, single point]"
Cc1cccc(Cn2c(SCc3ccc(C(=O)NC4CCCCC4)cc3)nc3cccnc32)c1,,"inconclusive: 39.8 µM [inhibitor, single point]"
N#CCN1CCN(CC(=O)c2ccc(Br)cc2)CC1,,"inconclusive: 0.631 µM [inhibitor, partial curve, poor fit]"
CCCCCCCCN1C(=O)[C@H](CC(=O)N2CCCCC2)C[C@@]2(C(=O)OC)CCCCC=C12,,"inconclusive: 39.8 µM [inhibitor, single point]"
COc1ccc(Cl)cc1C(=O)NC(=S)Nc1cc(-c2nc3ccccc3[nH]2)ccc1C,inactive: -15.1%,
Fc1cccc(/C=N/n2c(C3CCCCC3)n[nH]c2=S)c1,inactive: 0.853%,
Cc1cc(/N=C/C=C2/N(C)c3ccccc3C2(C)C)n(CCC#N)n1,,"inconclusive: 28.2 µM [inhibitor, single point]"
O=C(O)CCn1cc(/C=C/C(=O)c2ccc(Cl)cc2)c(-c2ccc(Br)cc2)n1,,"inconclusive: 39.8 µM [inhibitor, single point]"
O=C(OCC(=O)N1CCN(C(=O)c2ccco2)CC1)c1cc(-c2cccc(Br)c2)nc2ccccc12,,"inconclusive: 39.8 µM [inhibitor, single point]"
COc1cc(/C=C/C(=O)c2c(O)cc(C)oc2=O)cc(OC)c1O,inactive: 12%,
Cc1[nH]c2ccccc2c1SCc1nnc(SCc2ccc(Cl)cc2)n1C,,"inconclusive: 39.8 µM [inhibitor, single point]"
CC1Cc2cc(S(=O)(=O)N3CCN(c4ccc(Cl)cc4)CC3)ccc2N1C(=O)C1CC1 (configuration not stated),,"inconclusive: 12.6 µM [inhibitor, partial curve, poor fit]"
CCn1c(=O)n(CC)c2cc(N3CCCCC3)c(NC(=O)Nc3ccccc3C(F)(F)F)cc21,,"inconclusive: 39.8 µM [inhibitor, single point]"
NC(=O)C1CCN(C(=O)c2ccccc2SCC(=O)NCC2CCCCC2)CC1,inactive: 3.82%,
O=C(Oc1cccc2ccccc12)c1ccco1,inactive: -10.7%,
COc1ccc(-c2c(C)nn3c(N4CCC(C(=O)NCCN(C)C)CC4)cc(C)nc23)cc1OC,inactive: 2.78%,
CCOC(=O)C(CC)(CC)C(=O)/C=C/c1cccc(Br)c1,,"inconclusive: 39.8 µM [inhibitor, single point]"
COc1ccc(C2CC(c3ccc(Br)cc3)=NN2C(=O)c2cccnc2)cc1 (configuration not stated),,"inconclusive: 17.8 µM [inhibitor, partial curve, poor fit]"
